Source: paper PMC5437018
These are yes or no findings as the source states them, for the method shown. Some binding calls cover weakened binding; strength is not graded here.

Sequences of proteins named here, by UniProt entry; tags and fusion partners are left off.
UniProt P62136: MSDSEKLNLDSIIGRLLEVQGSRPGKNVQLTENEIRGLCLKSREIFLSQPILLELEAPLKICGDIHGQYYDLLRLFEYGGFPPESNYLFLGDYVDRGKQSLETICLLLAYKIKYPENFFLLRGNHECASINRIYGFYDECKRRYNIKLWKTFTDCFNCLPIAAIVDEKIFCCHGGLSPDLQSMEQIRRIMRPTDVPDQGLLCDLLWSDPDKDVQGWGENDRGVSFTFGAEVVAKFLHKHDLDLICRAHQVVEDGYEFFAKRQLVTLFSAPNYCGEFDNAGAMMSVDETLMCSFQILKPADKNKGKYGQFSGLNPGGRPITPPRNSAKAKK

Target: Recombinant purified α-isoform of mammalian PP1 (residues 1–330), tag cleaved (mammalian) (UniProt P62136)
Test: NMR titration; 1H-15N HSQC spectra of 15N-labelled CRI alone and in the gel-filtration-purified complex with unlabelled PP1; 50 mM sodium phosphate, 200 mM NaCl, 1 mM DTT, pH 6.8, 10 °C; both purified

- binding: binds
B1: Rif1 CRI (residues 2093–2190), purified, wild type (domain or fragment, UniProt Q6PR54 2093-2190)
chain: TSPEKLELDSFGSVNESPSGMQQARCVWSPLASPSTSILKRGLKRSQEDEISPVNKIRRVSFADPIYQAGLADDIDRRCSVVRSHSSNSSPIIKSVKT
